# Results: the supplement of paper PMC8728848
# The other results are listed elsewhere or left out.
# B1: SP16665A-bot-344-23-344 (Bacteroides ovatus) (protein)
# chain: SDNEFPDFDYQTVYFANQYGLRTIELGESEFVDNTLDNQHKMVIKAAWGGGYTNRNNVVINFKVDESLCDNLYFKDTDQPLVPMPASYYTLASDRIAIPKGQIMAGVEVQLTDDFFADEKSISENYVIPLLMTNVQGADSILQGKPVVENPVLTNAGDWSILPQNFVLYAVKYVNPWHGEYLRRGIDHATVAGTSKDIIRHEQFVENDEVVNISTKSMKDNLLTLKTKDESGKDISYTVRLSFAEDGSCTVHSGSQNVVVSGSGKFVSKGEKNSLGGKDRNAIYLDYTVNLTDNNIQLATKDTLVLRTRNVYGGKSLEVVRK
# How the values were obtained:
# Assay in all cases: glycan array binding signal (z-score within array); higher = stronger binding
# Settings in all cases: glycan notation: IUPAC condensed, linker removed
# [1] = biological target: Fuc(a1-2)Gal
# Outline: (§1)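 Arrays were curated from the Consortium for Functional Glycomics database, 3228 in total, and kept only where the protein sequence was available. Binding is expressed as a within-array Z-score. This score was averaged across arrays of the same protein sequence at different concentrations or buffers and across linkers, and negative values can be read as non-binding.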
# [2] = biological target: Fuc(a1-2)Gal(b1-3)GalNAc
# Outline: as §1
# [3] = biological target: Fuc(a1-2)Gal(b1-3)GalNAc(a1-3)[Fuc(a1-2)]Gal(b1-4)Glc
# Outline: as §1
# [4] = biological target: Fuc(a1-2)Gal(b1-3)GalNAc(a1-3)[Fuc(a1-2)]Gal(b1-4)GlcNAc
# Outline: as §1
# [5] = biological target: Fuc(a1-2)Gal(b1-3)GalNAc(b1-3)Gal
# Outline: as §1
# [6] = biological target: Fuc(a1-2)Gal(b1-3)GalNAc(b1-3)Gal(a1-4)Gal(b1-4)Glc
# Outline: as §1
# [7] = biological target: Fuc(a1-2)Gal(b1-3)GalNAc(b1-4)[Neu5Ac(a2-3)]Gal(b1-4)Glc
# Outline: as §1
# [8] = biological target: Fuc(a1-2)Gal(b1-3)GlcNAc
# Outline: as §1
# [9] = biological target: Fuc(a1-2)Gal(b1-3)GlcNAc(b1-2)Man(a1-3)[Fuc(a1-2)Gal(b1-3)GlcNAc(b1-2)Man(a1-6)]Man(b1-4)GlcNAc(b1-4)GlcNAc
# Outline: as §1
# [10] = biological target: Fuc(a1-2)Gal(b1-3)GlcNAc(b1-2)Man(a1-3)[Fuc(a1-2)Gal(b1-3)GlcNAc(b1-2)Man(a1-6)]Man(b1-4)GlcNAc(b1-4)[Fuc(a1-6)]GlcNAc
# Outline: as §1
# [11] = biological target: Fuc(a1-2)Gal(b1-3)GlcNAc(b1-3)Gal(b1-4)Glc
# Outline: as §1
# [12] = biological target: Fuc(a1-2)Gal(b1-3)GlcNAc(b1-3)GalNAc
# Outline: as §1
# [13] = biological target: Fuc(a1-2)Gal(b1-3)GlcNAc(b1-3)[Fuc(a1-2)Gal(b1-3)GlcNAc(b1-6)]GalNAc
# Outline: as §1
# [14] = biological target: Fuc(a1-2)Gal(b1-3)GlcNAc(b1-3)[Gal(b1-4)GlcNAc(b1-6)]Gal(b1-4)Glc
# Outline: as §1
# [15] = biological target: Fuc(a1-2)Gal(b1-3)GlcNAc(b1-3)[Neu5Ac(a2-6)Gal(b1-4)GlcNAc(b1-6)]Gal(b1-4)Glc
# Outline: as §1
# [16] = biological target: Fuc(a1-2)Gal(b1-3)GlcNAc6S
# Outline: as §1
# [17] = biological target: Fuc(a1-2)Gal(b1-3)[Fuc(a1-4)]GlcNAc
# Outline: as §1
# [18] = biological target: Fuc(a1-2)Gal(b1-3)[Fuc(a1-4)]GlcNAc(b1-2)Man(a1-3)[Fuc(a1-2)Gal(b1-3)[Fuc(a1-4)]GlcNAc(b1-2)Man(a1-3)]Man(b1-4)GlcNAc(b1-4)GlcNAc
# Outline: as §1
# [19] = biological target: Fuc(a1-2)Gal(b1-3)[Fuc(a1-4)]GlcNAc(b1-2)Man(a1-3)[Fuc(a1-2)Gal(b1-3)[Fuc(a1-4)]GlcNAc(b1-2)Man(a1-6)]Man(b1-4)GlcNAc(b1-4)[Fuc(a1-6)]GlcNAc(b1-4)[Fuc(a1-6)]GlcNAc
# Outline: as §1
# [20] = biological target: Fuc(a1-2)Gal(b1-3)[Fuc(a1-4)]GlcNAc(b1-3)[Fuc(a1-3)[Gal(b1-4)]GlcNAc(b1-6)]Gal(b1-4)Glc
# Outline: as §1
# [21] = biological target: Fuc(a1-2)Gal(b1-3)[Fuc(a1-4)]GlcNAc(b1-3)[Gal(b1-4)GlcNAc(b1-6)]Gal(b1-4)Glc
# Outline: as §1
# [22] = biological target: Fuc(a1-2)Gal(b1-4)Glc
# Outline: as §1
# [23] = biological target: Fuc(a1-2)Gal(b1-4)Glc6S
# Outline: as §1
# [24] = biological target: Fuc(a1-2)Gal(b1-4)GlcNAc
# Outline: as §1
# [25] = biological target: Fuc(a1-2)Gal(b1-4)GlcNAc(b1-2)Man
# Outline: as §1
# [26] = biological target: Fuc(a1-2)Gal(b1-4)GlcNAc(b1-2)Man(a1-3)[Fuc(a1-2)Gal(b1-4)GlcNAc(b1-2)Man(a1-6)]Man(b1-4)GlcNAc(b1-4)GlcNAc
# Outline: as §1
# [27] = biological target: Fuc(a1-2)Gal(b1-4)GlcNAc(b1-2)Man(a1-3)[Fuc(a1-2)Gal(b1-4)GlcNAc(b1-2)Man(a1-6)]Man(b1-4)GlcNAc(b1-4)[Fuc(a1-6)]GlcNAc
# Outline: as §1
# [28] = biological target: Fuc(a1-2)Gal(b1-4)GlcNAc(b1-2)[Fuc(a1-2)Gal(b1-4)GlcNAc(b1-4)]Man(a1-3)[Fuc(a1-2)Gal(b1-4)GlcNAc(b1-2)Man(a1-6)]Man(b1-4)GlcNAc(b1-4)GlcNAc
# Outline: as §1
# [29] = biological target: Fuc(a1-2)Gal(b1-4)GlcNAc(b1-3)Gal(b1-4)GlcNAc
# Outline: as §1
# [30] = biological target: Fuc(a1-2)Gal(b1-4)GlcNAc(b1-3)Gal(b1-4)GlcNAc(b1-2)Man(a1-3)[Fuc(a1-2)Gal(b1-4)GlcNAc(b1-3)Gal(b1-4)GlcNAc(b1-2)Man(a1-6)]Man(b1-4)GlcNAc(b1-4)GlcNAc
# Outline: as §1
# [31] = biological target: Fuc(a1-2)Gal(b1-4)GlcNAc(b1-3)Gal(b1-4)GlcNAc(b1-3)Gal(b1-4)GlcNAc
# Outline: as §1
# [32] = biological target: Fuc(a1-2)Gal(b1-4)GlcNAc(b1-3)GalNAc
# Outline: as §1
# [33] = biological target: Fuc(a1-2)Gal(b1-4)GlcNAc(b1-3)[Fuc(a1-2)Gal(b1-4)GlcNAc(b1-6)]GalNAc
# Outline: as §1
# [34] = biological target: Fuc(a1-2)Gal(b1-4)GlcNAc(b1-3)[Fuc(a1-3)[Gal(b1-4)]GlcNAc(b1-6)]Gal(b1-4)Glc
# Outline: as §1
# [35] = biological target: Fuc(a1-2)Gal(b1-4)GlcNAc(b1-6)GalNAc
# Outline: as §1
# [36] = biological target: Fuc(a1-2)Gal(b1-4)GlcNAc6S
# Outline: as §1
# [37] = biological target: Fuc(a1-2)Gal(b1-4)[Fuc(a1-3)]GlcNAc
# Outline: as §1
# [38] = biological target: Fuc(a1-2)Gal(b1-4)[Fuc(a1-3)]GlcNAc(b1-2)Man(a1-3)[Fuc(a1-2)Gal(b1-4)[Fuc(a1-3)]GlcNAc(b1-2)Man(a1-6)]Man(b1-4)GlcNAc(b1-4)[Fuc(a1-6)]GlcNAc
# Outline: as §1
# [39] = biological target: Fuc(a1-2)Gal(b1-4)[Fuc(a1-3)]GlcNAc(b1-2)[Fuc(a1-2)Gal(b1-4)[Fuc(a1-3)]GlcNAc(b1-4)]Man(a1-3)[Fuc(a1-2)Gal(b1-4)[Fuc(a1-3)]GlcNAc(b1-2)Man(a1-6)]Man(b1-4)GlcNAc(b1-4)GlcNAc
# Outline: as §1
# [40] = biological target: Fuc(a1-2)Gal(b1-4)[Fuc(a1-3)]GlcNAc(b1-3)Gal(b1-4)[Fuc(a1-3)]GlcNAc
# Outline: as §1
# [41] = biological target: Fuc(a1-2)Gal(b1-4)[Fuc(a1-3)]GlcNAc(b1-3)Gal(b1-4)[Fuc(a1-3)]GlcNAc(b1-3)Gal(b1-4)[Fuc(a1-3)]GlcNAc
# Outline: as §1
# [42] = biological target: Fuc(a1-2)Gal(b1-4)[Fuc(a1-3)]GlcNAc(b1-3)GalNAc
# Outline: as §1
# [43] = biological target: Fuc(a1-2)Gal(b1-4)[Fuc(a1-3)]GlcNAc(b1-3)[Neu5Ac(a2-6)Gal(b1-4)GlcNAc(b1-6)]Gal(b1-4)Glc
# Outline: as §1
# [44] = biological target: Fuc(a1-2)Gal3S(b1-4)GlcNAc
# Outline: as §1
# [45] = biological target: Fuc(a1-2)Gal6S(b1-3)GlcNAc
# Outline: as §1
binder,measurement,setting,value
B1,glycan array binding signal (z-score),[1],-0.352
same,glycan array binding signal (z-score),[2],0.245
same,glycan array binding signal (z-score),[3],-0.461
same,glycan array binding signal (z-score),[4],-0.235
same,glycan array binding signal (z-score),[5],-0.326
same,glycan array binding signal (z-score),[6],-0.053
same,glycan array binding signal (z-score),[7],-0.292
same,glycan array binding signal (z-score),[8],-0.201
same,glycan array binding signal (z-score),[9],0.068
same,glycan array binding signal (z-score),[10],0.285
same,glycan array binding signal (z-score),[11],-0.208
same,glycan array binding signal (z-score),[12],-0.509
same,glycan array binding signal (z-score),[13],0.262
same,glycan array binding signal (z-score),[14],-0.461
same,glycan array binding signal (z-score),[15],0.282
same,glycan array binding signal (z-score),[16],0.314
same,glycan array binding signal (z-score),[17],-0.547
same,glycan array binding signal (z-score),[18],0.066
same,glycan array binding signal (z-score),[19],-0.207
same,glycan array binding signal (z-score),[20],0.069
same,glycan array binding signal (z-score),[21],-0.441
same,glycan array binding signal (z-score),[22],-0.352
same,glycan array binding signal (z-score),[23],-0.314
same,glycan array binding signal (z-score),[24],-0.054
same,glycan array binding signal (z-score),[25],0.22
same,glycan array binding signal (z-score),[26],0.001
same,glycan array binding signal (z-score),[27],-0.468
same,glycan array binding signal (z-score),[28],-0.643
same,glycan array binding signal (z-score),[29],-0.213
same,glycan array binding signal (z-score),[30],0.005
same,glycan array binding signal (z-score),[31],-0.419
same,glycan array binding signal (z-score),[32],0.02
same,glycan array binding signal (z-score),[33],0.349
same,glycan array binding signal (z-score),[34],-0.168
same,glycan array binding signal (z-score),[35],-0.072
same,glycan array binding signal (z-score),[36],-0.416
same,glycan array binding signal (z-score),[37],-0.007
same,glycan array binding signal (z-score),[38],0.494
same,glycan array binding signal (z-score),[39],-0.05
same,glycan array binding signal (z-score),[40],0.357
same,glycan array binding signal (z-score),[41],-0.231
same,glycan array binding signal (z-score),[42],0.687
same,glycan array binding signal (z-score),[43],0.039
same,glycan array binding signal (z-score),[44],0.29
same,glycan array binding signal (z-score),[45],-0.017
